Values joined by “and” are separate entries in the source; they are usually repeats but may differ in a detail not shown here. Identical values can stand only once. The shares of active, inactive and inconclusive entries below differ from those in the screen. A potency beside an inconclusive call is a rough fit, not a confirmed value. Active and inactive are the calls of the source. Calls follow the shape of the dose curve; as a rule, active = well fitted inhibition curve with a large enough effect in the repeat runs; inconclusive = weak or mixed curves, or effect the other way; inactive = no such curve, though single readings can be large or run the other way.
molecular target: Nuclear receptor ROR-gamma (Homo sapiens) (UniProt P51449); experiment: qHTS assay to identify small molecule antagonists of the retinoid-related orphan receptor gamma (ROR-gamma) signaling pathway (AID 1159521; also: nearly all actives have a fitted effect of over 50% in size; as to activity change, negative = inhibition: top concentration of the series differs between compounds); conditions: Tet-on RORgamma CHO cells, RORE-luciferase, 16 h; series mostly up to 92.4 µM; activity change, negative = inhibition: at the top concentration
Method in brief: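 Tet-on RORγ CHO cells carrying a ROR response element–luciferase reporter were pretreated with compounds for 2 h, then induced with 1 uM (final) doxycycline hyclate for 16 h at 37 C. Antagonism was read as decreased ONE-Glo luminescence.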
% is scaled to controls: 0 for no effect and ±100 for the full control effect; potency is read from the fitted curve at half-maximal effect; tags tell the direction and shape of the fitted curve.

Compound | Potency | activity change, negative = inhibition
C[N+]1(CC2COC(c3ccccc3)(C3CCCCC3)O2)CCCCC1 (centres undefined) | inconclusive: 0.944 µM [inhibitor, single point] | –
CC1=CC(C)(C)Nc2ccccc21 | inconclusive: 66.8 µM [inhibitor, single point] | –
O=C(Nc1ccc([N+](=O)[O-])cc1)Nc1ccc([N+](=O)[O-])cc1 (tested in a mixture with another compound) | inconclusive: 5.31 µM [inhibitor, full curve] | –
NC(Cc1c[nH]c2ccccc12)C(=O)O (centres undefined) | – | inactive: 6.11% [at 42.5 µM]
CCN(CC)c1ccc(C=O)c(O)c1 | inconclusive: 68.6 µM [inhibitor, single point] | –
CC(=O)OC1CCCCC1 | – | inactive: -1.65%
COC(C)(C)CCO | inconclusive: 27.3 µM [inhibitor, single point] | –
Brc1ccccn1 | – | inactive: 5.05%
CCOC(=O)C(=O)CCc1ccccc1 | inconclusive: 26.6 µM [inhibitor, partial curve] | –
CC(=O)c1ccccc1N | – | inactive: 17.7%
COc1ccc(S(=O)(=O)Nc2nnc(CC(C)C)s2)cc1 | – | inactive: -9.96% [at 42.5 µM]
O=S1OCCO1 | inconclusive: 5.66 µM [inhibitor, single point] | –
O=C(Cl)c1ccc(C(=O)Cl)cc1 | inconclusive: 68.8 µM [inhibitor] | –
CC/C=C(\C)C=O | – | inactive: 12.1%
c1cc[nH]c1 | – | inactive: 0.412%
C=CC(=O)OCC(Br)CBr (centres undefined) | inconclusive: 24.3 µM [inhibitor, partial curve] | –
CSc1nnc(C(C)(C)C)c(=O)[nH]1 | inconclusive: 27.3 µM [inhibitor, full curve] | –
Cc1cncc(C)c1 | – | inactive: 2.83%
CC(C)(C)[C@@H](O)[C@@H](Cc1ccc(Cl)cc1)n1cncn1 | inconclusive: 0.0306 µM [inhibitor, full curve, poor fit] | –
Cc1ccc(/C=N/n2c(-c3ccccc3)csc2=S)cc1 | inconclusive: 10.6 µM [inhibitor, partial curve, poor fit] | –

Compound | Potency | activity change, negative = inhibition
Nc1ccc(Oc2cccc(Oc3ccc(N)cc3)c2)cc1 | inconclusive: 34.4 µM [inhibitor, full curve, poor fit] | –
C(/C=C/C=C/Nc1ccccc1)=Nc1ccccc1 | – | inactive: -0.205%
CSc1ccc(O)cc1C | active: 43.3 µM | –
Oc1ccc2c(c1)CCC2 | inconclusive: 10.9 µM [inhibitor, full curve, poor fit] | –
ClC(Cl)Cl | active: 48.2 µM | –
COc1ccc(C(=O)c2cccc(O)c2)c(OC)c1 | inconclusive: 5.44 µM [inhibitor, full curve, poor fit] | –
CC(=O)CC(N)=O | – | inactive: 8.76%
O=C(NCc1ncc(C(F)(F)F)cc1Cl)c1c(Cl)cccc1Cl | active: 12.2 µM | –
COc1ccc2c(c1)c(CC(=O)O)c(C)n2C(=O)c1ccc(Cl)cc1 | inconclusive: 34.6 µM [inhibitor, full curve, poor fit] and inconclusive: 48.6 µM [inhibitor, partial curve, poor fit] and inconclusive: 33.5 µM [inhibitor, single point] | –
CCCCCCCCCCCc1ccccc1 | inconclusive: 15.2 µM [inhibitor, full curve, poor fit] | –
CN(C)C(=O)NC1(c2ccccc2)CCN(CCC[C@]2(c3ccc(Cl)c(Cl)c3)CCCN(C(=O)c3ccccc3)C2)CC1 | – | inactive: -21% [at 19 µM]
Nc1c(Br)cc([N+](=O)[O-])cc1Br | inconclusive: 48.6 µM [inhibitor, partial curve, poor fit] | –
Cc1ccccc1C(OCCN(C)C)c1ccccc1 (centres undefined) | inconclusive: 43.3 µM [inhibitor, partial curve, poor fit] and inconclusive: 545 nM [inhibitor, single point] | –
OCc1ccccn1 | – | inactive: 14.6% [at 42.5 µM]
C[C@@H]1C[C@H]2[C@@H]3CCC4=CC(=O)C=C[C@]4(C)[C@@]3(F)[C@@H](O)C[C@]2(C)[C@H]1C(=O)CO | inconclusive: 18.8 µM [inhibitor, partial curve, poor fit] | –
CCN(CC)CCOC(=O)C(c1ccccc1)C1CCCCC1 (centres undefined) | – | inactive: -21.1% [at 42.5 µM]
C/C=C/C(=O)CC | inconclusive: 11.8 µM [inhibitor, single point] | –
CC(=O)OC(C)OC(C)=O | inconclusive: 2.81 µM [inhibitor, single point] | –
CC1(C)S[C@@H]2[C@H](NC(=O)Cc3ccccc3)C(=O)N2[C@H]1C(=O)O (tested in a mixture with another compound) | – | inactive: 18.7% [at 42.5 µM]
